Measured values as given in PubChem BioAssay AID1963576 (National Center for Advancing Translational Sciences (NCATS), 2024).
About 60 (0.1%) of roughly 46,000 compounds were called active. Another 3% or so got no clear call; they are omitted. Calls follow the shape of the dose curve; as a rule, active = well fitted inhibition curve with a large enough effect; inconclusive = small, poorly fitted or top-dose-only effect; inactive = no such curve, though single readings can be large or run the other way. The list shows a part of the results.

Assay: Primary qHTS assay for Inhibitors of ovarian cancer metastasis using an organotypic tumor microenvironment (TME) model. Also: nearly all actives have a fitted effect of over 65% in size.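 As to activity change, negative = inhibition: plate controls were DMSO wells for no effect and tomatine positive control wells for full effect.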
Settings: SKOV3ip1-GFP adhesion/invasion on 3D omental model, fluorescence; series mostly up to 45.8 µM; activity change, negative = inhibition: at the top concentration
How it was run: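 Primary human omental fibroblast/mesothelial 3D culture pre-formed 48 h. SKOV3ip1-GFP cells added with compounds (0.36-46 umol/L), incubated 2 h RT/16 h 37 C, fixed; GFP cells quantified at 488/509 nm.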

Activity change, negative = inhibition, inactive:
Cc1cccc(C(=O)Nc2cc3c(cc2N2CCCCC2)n(C)c(=O)c(=O)n3C)c1 -12.2%, CC(C)CC(=O)Nc1nnc(S(=O)(=O)N2CCCCCC2)s1 4.3%, CCOC(=O)c1ccc(NC(=O)Cn2nc(SC)c(S(=O)(=O)c3ccc(Cl)cc3)c2N)cc1 -54.5%, COc1ccc(-c2nc3cc(NC(=O)Cc4ccc(Cl)cc4)ccc3o2)cc1OC -2.71%, Cc1ccc(Cl)cc1Nc1nc2ccccc2c2nncn12 1.07%, CCOc1ccc(C(=O)Nc2cc(NC(=O)c3ccco3)ccc2OC)cc1Br -2.4%, Cc1ccc(CCNC(=O)CCN2N=C(c3ccc(C)cc3)CCC2=O)cc1 -1.45%, COc1ccc(OC)c(-n2nnc3c(sc4nc(C)c(Br)c(C)c43)c2=O)c1 -6.71%, COc1ccccc1NC(=O)N1c2ccccc2Sc2ccccc21 -7.13%, Cc1ccc(C(=O)N(Cc2sccc2C)C2CCS(=O)(=O)C2)cc1 (stereo not given) -2.24%, CCOc1cc(CC(=O)N[C@@H](CC(C)C)c2ccccc2N2CCCCC2)ccc1C(=O)O -2.8%, Cc1cc(C)c(Cn2c(C)c(CNCCCc3ccccc3)c(C(=O)O)c2C)c(C)c1 -0.673%, COc1ccc(Cl)cc1NS(=O)(=O)c1cc(-c2cc(C)no2)ccc1C -21.7%, Cc1cc(Br)ccc1NC(=O)CCS(=O)(=O)c1cccc2nonc12 8.58%, CC(NC(=O)Cn1ncc2c3ccccc3n(Cc3ccc(F)cc3)c2c1=O)c1ccccc1 (stereo not given) -0.816%, O=C(NCC(c1cccs1)S(=O)(=O)c1cccs1)c1ccccc1 (stereo not given) 5.07%, CCOC(=O)N1CCN(S(=O)(=O)N2CCCC(C(=O)NCc3cccc(OC)c3)C2)CC1 (stereo not given) -22.7%, CCC1CN(C(=O)N2CCC(C(=O)NCc3ccc(C)o3)CC2)c2cc(C)ccc2O1 (stereo not given) -0.242%, CC1=C(C(=O)Nc2cc3cn[nH]c3cc2F)C(c2ccc(C(F)(F)F)cc2)CC(=O)N1 (stereo not given) 5.28%, CNC(=O)c1ccccc1Nc1nc(Nc2ccc(N3CCOCC3)cc2OC)ncc1Cl -9.48%, Cc1cccc(NC(=O)c2cnn(-c3ccccc3)c2-n2cccc2)c1C -2.57%, COc1ccc(-c2cc(C(=O)Nc3c(C(=O)c4ccc(Cl)cc4)oc4ccccc34)no2)cc1 -6.3%, CC(=O)N1CCC(N(Cc2ccco2)C(=O)Nc2cccc(C)c2)CC1 3.11%, O=C(NC1CC(=O)N(c2ccc(F)cc2)C1)c1cc2ccccc2o1 (stereo not given) 13%, CC(=O)N1CCCc2cc(S(=O)(=O)N3CCC(C(=O)NCCC(C)C)CC3)ccc21 9.28%, Cc1nc2c(C(=O)NCc3ccccc3Cl)cnn2c(C)c1Cc1c(F)cccc1Cl 23%, CCOC(=O)c1nnc2c(-c3ccc(OC)cc3)c(C)nn2c1N -19%, COc1ccccc1NC(=O)n1ncc2c(C)cccc21 3.48%, COc1ccc(OC)c(C2CC(=O)c3c([nH]c(C(=O)OCC4CCCCC4)c3C)C2)c1 (stereo not given) -19.5%, CC1CCc2nc(NC(=O)COc3ccc(C(C)(C)C)cc3)sc2C1 (stereo not given) 1.04%, O=S(=O)(Nc1cccc(-c2ccc(N3CCCCC3)nn2)c1)c1cccs1 11.7%, O=NN(CCCl)C(=O)NCCCl -10.1%, O=C(Cc1ccc(NC(=O)N2CCSc3ncccc32)cc1)NCc1ccccc1Cl -15.5%, CCOc1ccc(S(=O)(=O)Nc2ccc3oc(C)c(C(=O)OCCOC)c3c2)cc1 -9.58%, Cc1csc2nc(COC(=O)COc3ccccc3F)cc(=O)n12 -1.34%, CCCC(=O)N1CC(=O)Nc2ccc(Cl)cc2C1c1ccc(F)cc1 (stereo not given) 2.06%, CC(=O)c1cccc(NC(=O)CCS(=O)(=O)c2cc(Br)cc3c2N(C(=O)C2CC2)CC3)c1 -4.66%, COc1ccc(CCNC(=O)Cn2nnc(-c3ccc(C(F)(F)F)cc3)n2)cc1OC -1.91%, Cn1c(C(=O)NCc2ccc(F)cc2)cc2c(=O)n(C)c3ccccc3c21 0.132%, CCS(=O)(=O)c1ncc(N(Cc2ccco2)Cc2sccc2C)c(C(=O)Nc2cc(C)ccc2C)n1 -6.69%, C[C@@H](N)C1CCC(C(=O)Nc2ccncc2)CC1 (stereo not given in full) 19.3%, Cc1ccccc1NS(=O)(=O)c1ccc2[nH]cc(C(=O)N3CCCC3)c(=O)c2c1 -0.457%, Cc1nc2ccn(Cc3cccnc3)c(=O)c2cc1C(=O)Nc1ccc(OC(F)(F)F)cc1 8.7%, Cc1ccc(Cl)cc1NC(=O)Cn1c(=O)c(CNc2ccccc2)cc2cc3c(cc21)OCCO3 3.93%, O=C(Nc1ccccc1C(=O)OCc1cc(=O)n2nc(C3CC3)sc2n1)c1cccc(Cl)c1 1.98%, Cc1sc2ncn(CC(=O)Nc3cccc(C(F)(F)F)c3)c(=O)c2c1S(=O)(=O)N1CCC(C)CC1 4.63%, Cc1c(C(=O)Nc2ccccc2Br)oc2ccc(S(=O)(=O)N3CCCCC3)cc12 7.36%, Cc1cccc(Cn2c(CN3CCC(C(=O)NCCc4ccccc4)CC3)cc3ccccc32)c1 0.737%, CCCCn1c(-c2ccc(S(=O)(=O)N3CCOCC3)cc2)csc1=Nc1ccccc1 -0.438%, CCOc1ccccc1NC(=O)c1cccc2c1C(=O)N(C1CCCCC1)C2 -1.54%, COc1cccc(NC(=O)Cn2c(=O)n(-c3ccc(CC(=O)NCC4CCCO4)cc3)c(=O)c3ccccc32)c1 (stereo not given) 12.9%, CCOc1ccc(C(=O)OCc2cc(=O)n3nc(C4CCCCC4)sc3n2)cc1 0.319%, Cc1ccc2nc(NC(=O)c3cc(=O)c4cc(C)c(C)cc4o3)sc2c1 13.3%, CCOc1ccc(NC(=O)Cc2csc(COc3cccc(C)c3)n2)cc1 -7.18%, CCCN1C(=O)C(NC(=O)c2ccccc2OC)(C(F)(F)F)C(C(=O)OC)=C1C (stereo not given) 8.9%, COc1ccccc1CNC(=O)c1ccc(C)c(-n2cnc3cccnc32)c1 20.6%, CCOc1ccc(NC(=O)Cn2c(C)ccc(C#N)c2=O)cc1 -7.42%, CCc1nnc2c3ccccc3nc(N3CCN(c4ccc(C)cc4C)CC3)n12 5.03%, CSc1ccc(CNC(=O)CCn2ccc3cc(S(=O)(=O)N4CCCC4)ccc32)cc1 0.475%, CCOC(=O)c1ccccc1NC(=O)CN(c1ccccc1OC)S(=O)(=O)c1ccc(C)cc1 2.45%, COc1ccc(-c2nn(C)c3sc(C(=O)N4CCN(c5cccc(C)c5C)CC4)cc23)cc1OC -11.3%, O=C(/C=C/c1cn(CC(O)CN2CCCCCC2)c2ccccc12)c1ccccc1 (stereo not given) -12.1%, Cc1ccc(CNc2nc3c(S(=O)(=O)c4ccccc4)nnn3c3ccsc23)cc1 2.58%, COc1cc(/C=C/c2nc(C#N)c(NC3CCCCC3)o2)cc(OC)c1OC 8.11%, COc1ccc(-n2ccnc(NCCc3ccc(S(N)(=O)=O)cc3)c2=O)cc1 -0.503%, Cc1c(C(=O)N2CCC(c3nc4ccccc4s3)CC2)oc2cc(Br)ccc12 -0.126%

outcome, inactive:
Cc1cccc(C)c1NC(=O)c1ccc2c(c1)N(Cc1cccc(Cl)c1)C(=O)c1ccccc1S2=O (stereo not given), COc1ccc(CCC(=O)NCc2ccc3c(c2)CCN3C(=O)c2ccc(F)cc2)cc1, Cc1ccsc1CCN1C(=O)N(c2ccccc2)C(=O)C1CC(=O)Nc1ccc(F)cc1 (stereo not given), CC(=O)c1sc2c(c1C)c(=O)n(-c1ccc(Cl)cc1)c(=O)n2Cc1ccc(Cl)cc1, Cc1ccc(C)c(N2CCN(C(=O)CN3C(=O)COc4ccc(S(=O)(=O)N5CCCCCC5)cc43)CC2)c1, CCOC(=O)c1c(NC(=O)c2noc3c2CC(C(C)(C)C)CC3)sc2c1CCCC2 (stereo not given), CCOC(=O)c1ccc(NC(=O)C2Cc3ccccc3CN2S(=O)(=O)c2ccc(Cl)cc2)cc1 (stereo not given), CCOC(=O)c1cc2c(=O)n3ccccc3nc2n(CC2CCCO2)c1=NC(=O)c1cccc(C(F)(F)F)c1 (stereo not given), CN1CCN(C(c2ccccc2)c2sc3nc(-c4ccco4)nn3c2O)CC1 (stereo not given), Cc1cccc(CCn2c(=O)c3ccccc3n(Cc3cccc(F)c3)c2=O)c1, CCOC(=O)c1ncn2c1CN(C)C(=O)c1cc(F)ccc1-2, CCCn1c(=O)c2sccc2n2c(CCCC(=O)N3CCN(c4ccccc4)CC3)nnc12, COCCn1c(SCC(=O)Nc2ccc(F)c(Cl)c2)nc2c(oc3ccccc32)c1=O, CCOC(=O)C1=C(CN2CCN(c3ccccc3)CC2)NC(=O)NC1c1ccc(C)cc1 (stereo not given), CCN(c1cccc(C)c1)S(=O)(=O)c1nnc(NC(=O)c2cccs2)s1, COc1ccc(-c2c(C)nn3c4c(cnc23)C(=O)CC(c2ccc(C)cc2)C4)cc1 (stereo not given), COc1ccc(C(=O)Nc2cc(C(F)(F)F)ccc2N2CCN(c3ccccc3)CC2)cc1OC, CCC(=O)Nc1nnc(S(=O)(=O)N(C)Cc2ccccc2)s1, CSc1ncc(Cl)c(C(=O)N(Cc2ccccc2Cl)C2CCS(=O)(=O)C2)n1 (stereo not given), CCOc1ccccc1C1C(C(=O)Nc2ccccc2OC)=C(C)Nc2nc3ccccc3n21 (stereo not given), Cc1ccc(C)c(NC(=O)CSc2cn(CC(=O)N3CCCC3)c3ccccc23)c1, O=C(NCCc1csc(-c2cccnc2)n1)c1cccc(C(F)(F)F)c1, COc1ccc(NS(=O)(=O)c2nnc(NC(=O)c3ccccc3F)s2)cc1, CCOC(=O)N1CCc2c(sc3c2c(=O)n(-c2ccc(Cl)cc2)c(=O)n3CC(=O)c2ccc(F)cc2)C1, COc1ccccc1NC(=O)CSc1nc2c(oc3ccccc32)c(=O)n1-c1ccc(C)cc1, COc1ccc(CN2C(=O)C(NC(=O)c3ccc(C)cc3)(C(F)(F)F)N=C2c2ccccc2)cc1 (stereo not given), O=C(CCCn1c(=O)c2cccn2c2cccnc21)NCCc1ccc(Cl)cc1, Cc1cc(Br)ccc1NC(=O)c1cc2c(s1)-c1ccccc1SC2, Cc1ccc2c(c1)c1c(c(=O)n(-c3cccc(Cl)c3)c(=O)n1CC(=O)N1CCCC1)n2C
